Measurements taken from the supplement of paper PMC8821664.
Where a name gives a salt, the structure may show the parent alone. The list shows a part of the results. Most values come without repeats; read them as rough.

System: Beas-2B AQP5-HiBiT reporter cells
Experiment: AQP5-HiBiT luminescence relative to vehicle (ratio to vehicle); higher = higher AQP5-HiBiT protein abundance
Conditions: 10 µM; 18 h
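Note: monoclonal Beas-2B line stably carrying CMV promoter-driven AQP5-HiBiT, 5,000 cells per well in 384-well plates, lytic HiBiT plus LgBiT NanoLuc luminescence, FDA-approved drug library screen.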

Compound: C[N+](C)(C)CC(O)CC(=O)[O-] (stereo not drawn) [L(-)-Carnitine]
- AQP5-HiBiT luminescence: 0.908

Compound: CO/N=C(\C(=O)N[C@@H]1C(=O)N2C(C(=O)O)=C(CSc3nnnn3C)CS[C@H]12)c1csc(N)n1 [Cefmenoxime hydrochloride]
- AQP5-HiBiT luminescence: 1.14

Compound: O=C1OC2(c3ccc(O)cc3Oc3cc(O)ccc32)c2ccccc21 [Fluorescein]
- AQP5-HiBiT luminescence: 1.11

Compound: OC(CCN1CCCCC1)(c1ccccc1)C1CCCCC1 (racemic) [DL-trihexyphenidyl hydrochloride]
- AQP5-HiBiT luminescence: 1.66

Compound: C[C@@H]1CCN(C(=O)CC#N)C[C@@H]1N(C)c1ncnc2[nH]ccc12
- AQP5-HiBiT luminescence: 0.442

Compound: CN(C)CCOc1ccc(/C(=C(/CCCl)c2ccccc2)c2ccccc2)cc1 [Toremifene citrate]
- AQP5-HiBiT luminescence: 1.17

Compound: CCCCCN(C)CCC(O)(P(=O)(O)O)P(=O)(O)O [Ibandronic acid]
- AQP5-HiBiT luminescence: 0.987

Compound: Clc1ccc(C(c2ccccc2Cl)C(Cl)Cl)cc1 (centres undefined) [Mitotan]
- AQP5-HiBiT luminescence: 1.2

Compound: CN1CCc2nc(C(=O)N[C@@H]3C[C@@H](C(=O)N(C)C)CC[C@@H]3NC(=O)C(=O)Nc3ccc(Cl)cn3)sc2C1 [Edoxaban Tosylate Monohydrate]
- AQP5-HiBiT luminescence: 0.778

Compound: CC1(C)CCC(CN2CCN(c3ccc(C(=O)NS(=O)(=O)c4ccc(NCC5CCOCC5)c([N+](=O)[O-])c4)c(Oc4cnc5[nH]ccc5c4)c3)CC2)=C(c2ccc(Cl)cc2)C1
- AQP5-HiBiT luminescence: 0.592

Compound: O=C(O[C@H]1CN2CCC1CC2)N1CCc2ccccc2[C@@H]1c1ccccc1 [Solifenacin succinate]
- AQP5-HiBiT luminescence: 1.54

Compound: CC(C)NCC(O)COc1ccc(CCOCC2CC2)cc1 (centres undefined) [Betaxolol hydrochloride]
- AQP5-HiBiT luminescence: 1.34

Compound: CC(=O)O[C@]1(C(C)=O)CC[C@H]2[C@@H]3C[C@H](C)C4=CC(=O)CC[C@]4(C)[C@H]3CC[C@@]21C [Farlutin]
- AQP5-HiBiT luminescence: 0.952

Compound: Cn1c(=O)c2nc[nH]c2n(C)c1=O [Theophylline]
- AQP5-HiBiT luminescence: 0.816

Compound: CCCCNc1ccc(C(=O)OCCN(C)C)cc1 [Tetracaine hydrochloride]
- AQP5-HiBiT luminescence: 0.843

Compound: C/C=C1\NC(=O)[C@H]2CSSCC/C=C/[C@H](CC(=O)N[C@H](C(C)C)C(=O)N2)OC(=O)[C@H](C(C)C)NC1=O [Romidepsin (FK228, Depsipeptide)]
- AQP5-HiBiT luminescence: 0.577

Compound: CO[C@H]1C(=O)[C@]2(C)[C@@H](OC)C[C@H]3OC[C@@]3(OC(C)=O)[C@H]2[C@H](OC(=O)c2ccccc2)[C@]2(O)C[C@H](OC(=O)[C@H](O)[C@@H](NC(=O)OC(C)(C)C)c3ccccc3)C(C)=C1C2(C)C [Cabazitaxel]
- AQP5-HiBiT luminescence: 1.62

Compound: CCCc1nc(C)c2c(=O)nc(-c3cc(S(=O)(=O)N4CCN(CC)CC4)ccc3OCC)[nH]n12 [Vardenafil hydrochloride Trihydrate]
- AQP5-HiBiT luminescence: 1.06

Compound: Cc1ccc(Cl)c(Nc2ccccc2C(=O)O)c1Cl [Meclofenamate Sodium]
- AQP5-HiBiT luminescence: 0.992

Compound: CO[C@H]1/C=C/O[C@@]2(C)Oc3c(C)c(O)c4c(O)c(c(/C=N/N5CCN(C6CCCC6)CC5)c(O)c4c3C2=O)NC(=O)/C(C)=C\C=C\[C@H](C)[C@H](O)[C@@H](C)[C@@H](O)[C@@H](C)[C@H](OC(C)=O)[C@@H]1C [Rifapentine]
- AQP5-HiBiT luminescence: 0.985

Compound: CS(=O)(=O)c1ccc(C(=O)Nc2ccc(Cl)c(-c3ccccn3)c2)c(Cl)c1 [Vismodegib (GDC-0449)]
- AQP5-HiBiT luminescence: 0.859

Compound: CC(=O)NC[C@H]1CN(c2ccc(N3CCOCC3)c(F)c2)C(=O)O1 [Linezolid]
- AQP5-HiBiT luminescence: 0.754

Compound: Nc1c(CC(=O)O)cccc1C(=O)c1ccc(Br)cc1 [Bromfenac sodium]
- AQP5-HiBiT luminescence: 0.743

Compound: N#C[C@@H]1C[C@@H]2C[C@@H]2N1C(=O)[C@@H](N)C12CC3CC(CC(O)(C3)C1)C2 [Saxagliptin hydrate]
- AQP5-HiBiT luminescence: 0.665

Compound: Cc1ccc(-c2cc(C(F)(F)F)nn2-c2ccc(S(N)(=O)=O)cc2)cc1 [Celecoxib]
- AQP5-HiBiT luminescence: 0.969

Compound: C[C@H](CCC(=O)O)[C@H]1CC[C@H]2[C@@H]3[C@H](O)C[C@@H]4C[C@H](O)CC[C@]4(C)[C@H]3CC[C@]12C [Chenodeoxycholic acid]
- AQP5-HiBiT luminescence: 0.896

Compound: COC(=O)C1=C(C)NC(C)=C(C(=O)OCCN(C)Cc2ccccc2)C1c1cccc([N+](=O)[O-])c1 (centres undefined) [Nicardipine hydrochloride]
- AQP5-HiBiT luminescence: 1.03

Compound: COC(=O)C1=C(C)NC(C)=C(C(=O)OC(C)C)C1c1cccc2nonc12 (centres undefined) [Isradipine]
- AQP5-HiBiT luminescence: 0.557

Compound: Nc1ccc(S(N)(=O)=O)cc1 [Sulfanilamide]
- AQP5-HiBiT luminescence: 0.876
